# Some of the results follow.
# Test system: PF3D7_0420300 AP2 domain 1 (GST-tagged)
# Experiment: gcPBM binding intensity (ln(normalized median fluorescence intensity)); higher = stronger DNA binding
# Procedure, shortened: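 In this array assay, P. falciparum DNA-binding domains with a GST tag, expressed in E. coli, were applied for 1 h to primer-extended double-stranded 36-bp intergenic genomic probes and negative controls on an Agilent 4 × 180k array. Bound protein was visualised with Alexa488 anti-GST antibody at 488 nm. Binding intensity is the highest Masliner-normalised natural-log median intensity across replicate spots of either probe orientation.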
row,Sequence,gcPBM binding intensity (ln)
1,TTTAGCTATTATAGCTGTACAATGATAAAATAAATT [XGTACX_site6318],8.93
2,ATAAGTAAAAATAAAAAAAAAATATATATATATATA [CACACA_negctrl_site1816],9.05
3,GTTCATATCTTTTGAGCACACATATATATATATAAA [CACACA_site9099],9.36
4,AATGAATCCTTATATACACACATTATTATATTATAT [CACACA_site3108],9.62
5,TATATTATATATATGTGTACATATAAATGTAACAAA [XGTACX_site5025],9.08
6,ATAGAATACATATATGAACACACAGAGTTTTAAAAA [CACACA_site8879],9.55
7,AATACATATAAAAGTACACACACACCCATATATATA [CACACA_site8220],10.2
8,TTTTTTTTTTGATGTTGTACATATATACTATATAAT [XGTACX_site1332],9.31
9,GAAAATAAAAAAAATAAAAAAAATAAAAAAAATTAT [XGTACX_negctrl_site443],9.23
10,TAAATATCTAAAGACTGTACAATTAAATATAAACAT [XGTACX_site1450],9.21
11,TTTTGTAACCTATGCACGCACACAAGAAAAAAACAA [CACACA_site3776],9.24
12,AGTTTATTTGTAAAAAGTACATATTTAAGAAAACTT [XGTACX_site2318],9.1
13,TTCTAACTCTAACAAGTGCAATATATATACATAATA,9.07
14,AAATTTGGCAAACACACACACACACCCACACCCACA [CACACA_site8095],10.2
15,AATATATATCATCACACACACATACATAAATATATA [CACACA_site184],10
16,AATATATTCCACATGTGTACATATATATATATATAT [XGTACX_site8006],9.41
17,AAAAATAAAGAAACAGGTACGCATATATTAAGATAT [XGTACX_site8097],9.79
18,TTTCCTTCTACAAAAAATTTTATCAAGAGGAAGTAC [CACACA_negctrl_site926],8.83
19,TGTCACTACAAATGAGTGCATTAAATAATTTGGAAA,9.01
20,AATATTATTTATATTTGTACACAGTAATATAAAATA [XGTACX_site4884],9.06
21,ATATGCAAAGAGTATAATCAAAATGTAAATAAATAA [GTGCAC_negctrl_site141],9.26
22,CCATAGATATTTTATACACACATATAATATATTAAG [CACACA_site4363],9.44

row,Sequence,gcPBM binding intensity (ln)
1,TTATAAAGAACACAGACACACAAAGAAAGAACCAAT [CACACA_site4175],10.1
2,CACAAATAAATACATACACACATATATACTCATATA [CACACA_site4379],9.71
3,TTACACAAATAGCTGCATTTATAAAATACAATTAAA [CACACA_negctrl_site241],9.03
4,TGGGCGTCATAATGAACACACAATTATATTATGACT [CACACA_site3910],9.25
5,ATATATATAATAATATGTACGGAAAAAGCTTAAGCT [XGTACX_site5661],9.3
6,TTTTGTCAATTTTAGATTTTTCAATACATGGATATT [CACACA_negctrl_site319],9.04
7,ATATATATATATTTATGTACGAATATGTTTAATTTA [XGTACX_site3986],9.18
8,AAATATATATATTTACGTACATATATACAAATAGAG [XGTACX_site6067],9.35
9,AAATGGTAAGAAAATAAATAAAGTTCTACCACATAA [CACACA_negctrl_site1542],9.33
10,TAGAAAGAATATAATTGTACAAATGTTGATAGATAA [XGTACX_site7259],9.28
11,ATTTTTCTTTTATTAACACACATATAAATAAATACA [CACACA_site2876],9.22
12,ATATATATATATATATATATATATGTTTGATTTTTT [XGTACX_negctrl_site98],8.88
13,ATAATAATAAAAATTATACATAAGTATATGCACATA [XGTACX_negctrl_site583],9.17
14,TATAAACCATAATTAACACACAAAATAAGTTACATA [CACACA_site3227],9.76
15,ACATATGGTATTTAAACACACAAAAAAGAAAGAAAA [CACACA_site991],9.55
16,TTTTGCTTTTTTTTTCTTTTTTGTTTTATATATATT [CACACA_negctrl_site103],9.74
17,CCACATTAAAAAAAAACACACATATATTATATATAT [CACACA_site1155],9.43
18,AATACATGAATATGTAGTACAGAAAAAAAAAATATA [XGTACX_site1945],9.32
19,GTTACAGAGAATGTTGTGCACATATCAATAATATAT [GTGCAC_site9671],9.32
20,AAAATGACATAATGGGGAATAGACATATACATAAAT [CACACA_negctrl_site1669],9.63
21,TATATATATATATATATTTTAAATGATATAAATGGT [TGCATGCA_negctrl_site152],9.2
22,AATTAATTAAATTAATGTACACATATATTTGTATTC [XGTACX_site2341],9.24

row,Sequence,gcPBM binding intensity (ln)
1,AGAGAAAGAAGGGAGAAAAAATAAAATAAAATAAAA [GTGCAC_negctrl_site299],9.07
2,AATAAAAAAAAACTCATGCACACAATATTATGAAAA [CACACA_site664],9.64
3,CATATATAGATATATACACACATACATACATACATA [CACACA_site7748],9.59
4,TGCATATGCATTATTTGTACATATGTAGATAATTAT [XGTACX_site6930],9.14
5,AATAAAATAAATATATGTACATATATATAACCATTA [XGTACX_site5549],9.39
6,AAAAATTACAAATACAAACACACAAATGTTTTTCAT [CACACA_site3551],9.45
7,TTGACATATAAGATATGTACTAATACACACACATAT [XGTACX_site1904],9.75
8,AAATAATAAAACAACACACAAATAGTTAAAATAGAA [CACACA_site5007],9.88
9,ACATTCTATATATACACACATACATAATAAAGAAAG [CACACA_site2771],9.76
10,TTTTAATGATATATGAGTACACATTGTTTTTTATAA [XGTACX_site1072],9.05
11,ATATAATGATGGAAAAGAAAAGAAATAAAAAAAAAA [CACACA_negctrl_site1170],9.21
12,TATTTTTATTGGTACTGTACCTATTTAGAAATACAT [XGTACX_site6663],9.16
13,ATGATTTCATTTGAGAGTACGTAAAAATAATACGTA [XGTACX_site4958],8.92
14,TATTTATAAAAAAATACATGCATTTTTTTTTTTTTT [TGCATGCA_site65],8.74
15,TGTTAATTCTTAAGAATTTCCATAATTTCTTCTTTT [CACACA_negctrl_site1065],9.11
16,TAATACAAAAACAATGTTCTTTCAAACATAAACATA [CACACA_negctrl_site1628],9.19
17,TTTGCCATATGACACACACACATGTAAACCCCCTTT [CACACA_site6873],9.95
18,TTTTTTTTTTTGAAATGTACATTCCAAAAACTGATA [XGTACX_site1495],8.97
19,TATATATATATATATTTTTTTTTTTTATGCACATGG [CACACA_negctrl_site1573],9
20,CTTTTGAACAGTTCATGTACTCAATTTTTTAATAGT [XGTACX_site6498],9.11
21,TAATACCTATGGTATAGTACGTATTATTTTATAGAG [XGTACX_site2078],9.03
22,TCCCTTCATCTTTTATGTACTAAAAAATTGAATAAT [XGTACX_site2172],9.09

row,Sequence,gcPBM binding intensity (ln)
1,TAATACGAATGAGGCACACACCTAGTATACATGCTT [CACACA_site6438],9.45
2,AATTAAAATTTTTGAAGTACACTCAAAATAAGTTAT [XGTACX_site4490],9.02
3,AAAATAAAAAAAAACACACACATACAAGCATATATA [CACACA_site1585],10.2
4,AATTAATGGCTAAAGGTGCACAATATATATATTACA,9.46
5,AAAAAAAAATTTAAGGGTACATACAAATATATATAT [XGTACX_site5078],9.37
6,TTATATTCTAGAGACACATGCGATTTTTTATTTTAT [TGCATGCA_site649],9.42
7,TGGAATAATCCGCGTACACACATATATATATTAAGA [CACACA_site4253],9.49
8,AATAAAAATAGGAATACGCACACGATGATTAATTTA [CACACA_site1836],9.39
9,AATTAACCCTAATTTTGTACATATTCCTTTTCTCAT [XGTACX_site46],9.61
10,GTTACTATGATTAATGCATGCAAATACCAAAAAAAA [TGCATGCA_site590],9.07
11,TATACCACACGATATACACACTTGTAGACATCTTTT [CACACA_site6232],9.51
12,TTGTCTGACTAATTTTTTTCTGTTTGTACGTTCTTA [GTGCAC_negctrl_site602],9.42
13,TTTTTATACAACTTATAATACATCTGAAAATATAAA [XGTACX_negctrl_site36],8.94
14,TATCACATATTATGATGTACAAGGTTTCTGACTAAT [XGTACX_site2763],9.12
15,ACAAAATAAATATGAACACACACATTTATGCCTTTA [CACACA_site8346],9.77
16,ATAATTATACATATTACACACTCTCTTGATCTTTTT [CACACA_site3853],9.55
17,CATATATAAAAAAACACACACATATTTATATTTATA [CACACA_site6682],9.81
18,CATATTTCTTACATTTGTACTTAATAAAATTAATCA [XGTACX_site7224],9.11
19,AAAAAAATTTATAAATATTTTATTAATATATTTACC [GTGCAC_negctrl_site690],8.86
20,ACACAAAACAAAAAGGTGCTGTATAAATGGGTGTAT [GTGCAC_site9905],9.89
21,AACACCCATGGACACACACACATATATATATATATA [CACACA_site5809],9.92
22,TTTTTATAAGCATAAAGTACAAATATTTTTTAGTTG [XGTACX_site4140],8.86

# From the supplement of paper PMC11417369
